Experimental data from US20060160798A1, “Viral polymerase inhibitors” (Boehringer Ingelheim (Canada) Ltd., priority 2001, published 2006).
pEC50: −log10 of the molar value.

Tested on: Huh7 cells that stably maintain a subgenomic HCV replicon (S22.3 cell-line)
Experiment: Cell based HCV RNA replication assay (S22.3 replicon cells, real-time RT-PCR)
Conditions: Hepatitis C virus
[1] = Huh-7, 72 h, S22.3 cells, 72 hours incubation, HCV RNA by RT-PCR

SMILES | pEC50 [1] | pEC50 (Huh-7, Table 6) | also measured
Cn1c(-c2nc3ccccc3[nH]2)c(C2CCCCC2)c2ccc(C(=O)NC(C)(C)C(=O)Nc3ccc(/C=C/C(=O)O)cc3)cc21 [Entry 2109] | 5.30 to 6.30 |  | 
O=C(O)/C=C/c1ccc(NC(=O)C2(NC(=O)c3ccc4c(C5CCCCC5)c(-c5ccoc5)[nH]c4c3)CCSCC2)cc1 [Entry 2025] | > 6.30 |  | 
Cn1c(C(=O)O)cc2cc(NC(=O)C3(NC(=O)c4ccc5c(C6CCCC6)c(-c6ccsc6)n(C)c5c4)CCC3)ccc21 [Entry 7054] |  |  | pEC50 (Huh-7, Table 7): > 6.30
CCc1ccnc(-c2c(C3CCCC3)c3ccc(C(=O)NC4(C(=O)Nc5ccc(-c6ccc(C(=O)O)o6)cc5)CCC4)cc3n2C)c1 [Entry 7042] |  |  | pEC50 (Huh-7, Table 7): 5.30 to 6.30
O=C(O)/C=C/c1ccc(NC(=O)C2(NC(=O)c3ccc4c(C5CCCCC5)c(-c5cccs5)[nH]c4c3)CCCC2)cc1 [Entry 2042] | > 6.30 |  | 
Cn1c(-c2ccccn2)c(C2CCCCC2)c2ccc(C(=O)NC(C)(C)C(=O)Nc3ccc(-c4nc(C(=O)O)cs4)cc3)cc21 [Entry 2071] | > 6.30 |  | 
Cc1c(C(=O)O)sc2ccc(NC(=O)[C@]3(NC(=O)c4ccc5c(C6CCCC6)c(-c6ccccn6)n(C)c5c4)CCN(C)C3)cc12 [Entry 7057] |  |  | pEC50 (Huh-7, Table 7): > 6.30
Cc1ccc(-c2c(C3CCCC3)c3ccc(C(=O)N[C@@]4(C(=O)Nc5ccc(/C=C/C(=O)O)cc5)CCN(C)C4)cc3n2C)cn1 [Entry 6115] |  | > 6.30 | 
CN(C)CCNc1nc(-c2c(C3CCCC3)c3ccc(C(=O)NC4(C(=O)Nc5ccc(/C=C/C(=O)O)cc5)CCC4)cc3n2C)cs1 [Entry 6082] |  | > 6.30 | 
Cn1c(-c2cccc[n+]2[O-])c(C2CCCCC2)c2ccc(C(=O)NC(C)(C)C(=O)Nc3ccc(/C=C/C(=O)O)cc3)cc21 [Entry 2097] | 5.30 to 6.30 |  | 
Cn1c(-c2csc(CO)n2)c(C2CCCC2)c2ccc(C(=O)NC(C)(C)C(=O)Nc3ccc(/C=C/C(=O)O)cc3)cc21 [Entry 6026] |  | > 6.30 | 
Cn1c(-c2ccccn2)c(C2CCCCC2)c2ccc(C(=O)NC(C)(C)C(=O)Nc3ccc(-c4ccc(C(N)=O)o4)cc3)cc21 [Entry 2073] | > 6.30 |  | 
O=C(NC1(C(=O)Nc2ccc3c(Cl)c(C(=O)O)sc3c2)CCCC1)c1ccc2c(C3CCCCC3)c(-c3ccoc3)[nH]c2c1 [Entry 2013] | > 6.30 |  | 
Cn1c(-c2csc(NC(=O)CC(C)(C)C)n2)c(C2CCCC2)c2ccc(C(=O)NC3(C(=O)Nc4ccc(/C=C/C(=O)O)cc4)CCC3)cc21 [Entry 6080] |  | > 6.30 | 
NC(=O)/C=C/c1ccc(NC(=O)C2(NC(=O)c3ccc4c(C5CCCCC5)c(-c5ccoc5)[nH]c4c3)CCCC2)cc1 [Entry 2060] | > 6.30 |  | 
Cn1c(-c2ccncc2)c(C2CCCC2)c2ccc(C(=O)NC3(C(=O)Nc4ccc(-c5ccc(C(=O)O)o5)cc4)CCCC3)cc21 [Entry 7041] |  |  | pEC50 (Huh-7, Table 7): > 6.30
COc1cccc(-c2c(C3CCCC3)c3ccc(C(=O)NC4(C(=O)Nc5ccc(/C=C/C(=O)O)cc5)CCC4)cc3n2C)n1 [Entry 6043] |  | > 6.30 | 
CC(=O)Nc1ccc(-c2c(C3CCCC3)c3ccc(C(=O)NC(C)(C)C(=O)Nc4cccc5c4cc(C(=O)O)n5C)cc3n2C)cc1C [Entry 1006] | > 6.30 |  | 
Cc1cccc(-c2c(C3CCCC3)c3ccc(C(=O)N[C@@]4(C(=O)Nc5ccc(/C=C/C(=O)O)cc5)CCN(C)C4)cc3n2C)n1 [Entry 6116] |  | > 6.30 | 
CCN1CCC(NC(=O)c2ccc3c(C4CCCCC4)c(-c4ccoc4)[nH]c3c2)(C(=O)Nc2ccc(CCC(N)=O)cc2)CC1 [Entry 2100] | > 6.30 |  | 
CC(C)OC(=O)Nc1nc(-c2c(C3CCCC3)c3ccc(C(=O)NC(C)(C)C(=O)Nc4ccc(/C=C/C(=O)O)cc4)cc3n2C)cs1 [Entry 6028] |  | > 6.30 | 
Cn1c(-c2ccccn2)c(C2CCCC2)c2ccc(C(=O)NC3(/C=C/c4ccc(/C=C/C(=O)O)cc4)CCCC3)cc21 [Entry 1015] | > 6.30 |  | 
CCN1CCC(NC(=O)c2ccc3c(C4CCCCC4)c(-c4ccoc4)[nH]c3c2)(C(=O)Nc2ccc(CCC(=O)O)cc2)CC1 [Entry 2079] | 5.30 to 6.30 |  | 
Cc1cccc(-c2c(C3CCCC3)c3ccc(C(=O)NC4(C(=O)Nc5ccc(-c6ccc(C(=O)O)o6)cc5)CCCC4)cc3n2C)n1 [Entry 7021] |  |  | pEC50 (Huh-7, Table 7): > 6.30
CN1CCC(NC(=O)c2ccc3c(C4CCCC4)c(-c4cnccn4)n(C)c3c2)(C(=O)Nc2ccc(/C=C/C(=O)O)cc2)CC1 [Entry 6065] |  | 5.30 to 6.30 | 
O=C(O)/C=C/c1ccc(NC(=O)C2(NC(=O)c3ccc4c(C5CCCC5)c(-c5ccccn5)[nH]c4c3)CCC2)cc1 [Entry 6121] |  | > 6.30 | 
Cn1c(-c2ccc(C(F)(F)F)cn2)c(C2CCCC2)c2ccc(C(=O)NC3(C(=O)Nc4ccc(/C=C/C(=O)O)cc4)CCC3)cc21 [Entry 6041] |  | > 6.30 | 
COCCNc1nc(-c2c(C3CCCC3)c3ccc(C(=O)NC(C)(C)C(=O)Nc4ccc(/C=C/C(=O)O)cc4)cc3n2C)cs1 [Entry 6020] |  | > 6.30 | 
CN1CCC(NC(=O)c2ccc3c(C4CCCC4)c(-c4cccc(N)n4)n(C)c3c2)(C(=O)Nc2ccc(/C=C/C(=O)O)cc2)CC1 [Entry 6059] |  | > 6.30 | 
Cn1c(-c2cnc(N)nc2)c(C2CCCCC2)c2ccc(C(=O)NC(C)(C)C(=O)Nc3ccc(/C=C/C(=O)O)cc3)cc21 [Entry 2081] | > 6.30 |  | 
